# This is a selection; strong and weak results do not stand in their true shares. For part of these data: At the low end of the ranking, values are background and their order means little. This is one part of the list. For part of these data: The exact form of the protein is not confirmed.
# Legend:
# Test in all cases: universal protein binding microarray (PBM)
# Details in all cases: transcription factors of Arabidopsis thaliana; high values mean tight binding; most listed sequences are background and not binding sites; double strand, one strand shown
# [1] = molecular target: GST-NTL6(1-168) (UniProt Q9SCK6)
# [2] = molecular target: T1, GST-ANAC019 NAC domain (UniProt Q9C932)
# T1 sequence: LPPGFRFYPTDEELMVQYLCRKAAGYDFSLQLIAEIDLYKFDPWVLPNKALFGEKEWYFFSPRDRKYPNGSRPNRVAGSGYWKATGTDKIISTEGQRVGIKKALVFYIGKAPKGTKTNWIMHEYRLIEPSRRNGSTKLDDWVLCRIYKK
# [3] = molecular target: T2, GST-ANAC055(1-171) (UniProt Q9LDY8)
# T2 sequence: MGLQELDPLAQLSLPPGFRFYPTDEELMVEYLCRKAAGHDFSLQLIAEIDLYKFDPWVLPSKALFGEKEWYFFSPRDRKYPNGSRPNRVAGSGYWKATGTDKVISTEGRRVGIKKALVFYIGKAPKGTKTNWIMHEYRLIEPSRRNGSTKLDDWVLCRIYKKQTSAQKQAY
# [4] = molecular target: T3, GST-ANAC092(1-285) full length (UniProt Q9FKA0)
# T3 sequence: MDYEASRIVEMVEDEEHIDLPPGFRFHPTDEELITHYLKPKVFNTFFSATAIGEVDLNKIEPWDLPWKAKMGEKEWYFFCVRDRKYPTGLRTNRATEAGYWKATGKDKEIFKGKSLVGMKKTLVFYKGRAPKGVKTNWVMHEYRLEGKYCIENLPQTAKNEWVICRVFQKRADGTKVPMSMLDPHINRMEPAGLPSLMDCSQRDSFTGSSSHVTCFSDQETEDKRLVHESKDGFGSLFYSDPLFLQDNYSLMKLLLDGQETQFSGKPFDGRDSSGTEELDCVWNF
# [5] = molecular target: T4, GST-NAP(1-166) (UniProt O49255)
# T4 sequence: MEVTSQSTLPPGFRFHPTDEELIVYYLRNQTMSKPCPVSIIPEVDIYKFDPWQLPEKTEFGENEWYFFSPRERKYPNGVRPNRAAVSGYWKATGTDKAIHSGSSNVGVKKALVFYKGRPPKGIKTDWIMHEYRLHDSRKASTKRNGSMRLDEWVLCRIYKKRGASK
# [6] = molecular target: T5, GST-NST2(1-184) (UniProt Q9M274)
# T5 sequence: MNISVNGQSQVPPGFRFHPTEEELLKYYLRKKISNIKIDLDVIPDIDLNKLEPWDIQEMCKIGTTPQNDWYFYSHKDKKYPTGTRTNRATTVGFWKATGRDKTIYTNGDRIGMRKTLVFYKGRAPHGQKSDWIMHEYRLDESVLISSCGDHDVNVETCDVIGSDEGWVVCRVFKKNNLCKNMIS
# [7] = molecular target: T6, GST-NTL8 NAC domain (UniProt Q9XIN7)
# T6 sequence: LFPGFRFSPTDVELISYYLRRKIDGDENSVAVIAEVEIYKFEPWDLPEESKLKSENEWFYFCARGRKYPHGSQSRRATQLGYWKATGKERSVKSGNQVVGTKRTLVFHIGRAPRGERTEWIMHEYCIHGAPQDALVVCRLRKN
# [8] = molecular target: T7, GST-SND1(1-203) (UniProt Q9LPI7)
# T7 sequence: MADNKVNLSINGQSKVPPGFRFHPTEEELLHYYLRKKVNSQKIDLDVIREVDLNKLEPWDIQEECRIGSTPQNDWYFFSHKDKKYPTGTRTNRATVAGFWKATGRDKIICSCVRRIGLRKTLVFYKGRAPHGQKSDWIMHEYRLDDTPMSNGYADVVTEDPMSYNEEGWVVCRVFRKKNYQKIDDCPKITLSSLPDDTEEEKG
# [9] = molecular target: T8, GST-VND7 NAC domain (UniProt Q9C8W9)
# T8 sequence: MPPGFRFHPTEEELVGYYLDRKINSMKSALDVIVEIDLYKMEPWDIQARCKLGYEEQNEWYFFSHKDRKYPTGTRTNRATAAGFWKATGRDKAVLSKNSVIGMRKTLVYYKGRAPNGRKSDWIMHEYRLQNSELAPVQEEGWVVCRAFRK
# [10] = molecular target: T9, GST-VOZ2 (Arabidopsis thaliana) (UniProt Q9SLB9)
# T9 sequence: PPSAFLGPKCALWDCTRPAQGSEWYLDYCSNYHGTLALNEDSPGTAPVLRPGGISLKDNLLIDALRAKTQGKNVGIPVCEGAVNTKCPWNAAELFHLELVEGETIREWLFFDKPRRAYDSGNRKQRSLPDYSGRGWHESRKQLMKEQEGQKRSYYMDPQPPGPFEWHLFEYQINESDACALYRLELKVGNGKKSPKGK
# [11] = molecular target: GST-WRKY1(266-371) (UniProt Q9SI37)
# [12] = molecular target: T10, GST-ATAF1 NAC domain (UniProt Q39013)
# T10 sequence: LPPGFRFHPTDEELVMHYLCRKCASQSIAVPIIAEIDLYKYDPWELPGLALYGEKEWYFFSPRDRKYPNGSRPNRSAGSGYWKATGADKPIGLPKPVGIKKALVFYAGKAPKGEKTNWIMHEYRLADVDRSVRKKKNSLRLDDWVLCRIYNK
# [13] = molecular target: T11, GST-ANAC092(1-176) (UniProt Q9FKA0)
# T11 sequence: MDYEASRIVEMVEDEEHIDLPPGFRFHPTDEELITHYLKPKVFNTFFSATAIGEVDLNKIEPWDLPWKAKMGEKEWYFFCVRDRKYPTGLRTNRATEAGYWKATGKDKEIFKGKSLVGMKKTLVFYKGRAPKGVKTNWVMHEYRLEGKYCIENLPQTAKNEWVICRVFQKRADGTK
Sequence,binding signal [1] [E-score],binding signal [2] [E-score],binding signal [3] [E-score],binding signal [4] [E-score],binding signal [5] [E-score],binding signal [6] [E-score],binding signal [7] [E-score],binding signal [8] [E-score],binding signal [9] [E-score],binding signal [10] [E-score],binding signal [11] [E-score],binding signal [12] [E-score],binding signal [13] [E-score]
CTTGACTC,-0.0987,0.0423,-0.00513,0.0114,-0.0921,-0.00185,0.0122,-0.0166,0.00536,-0.108,0.466,–,–
TACGTAAA,0.095,–,–,–,–,–,0.172,0.43,0.43,0.109,0.00836,–,–
ATGCCGTG,-0.153,–,–,0.443,0.397,0.0239,0.0115,0.111,0.447,-0.117,-0.101,0.35,–
ACGTCACC,-0.0859,–,0.32,–,0.356,0.237,-0.117,0.408,0.28,0.0743,-1.5e-05,0.311,0.452
TTACGCAA,0.18,–,–,–,–,–,0.18,0.495,0.468,0.276,0.0317,–,0.484
GTATTGAC,-0.00534,-0.0278,–,–,–,0.0313,-0.0495,-0.0149,0.0877,0.0657,0.455,0.0363,–
ACACGGTA,-0.0259,–,–,–,–,–,-0.0102,0.0105,0.123,-0.0877,0.0158,–,0.437
GATGCGTA,-0.017,–,0.227,0.416,–,–,-0.0979,0.415,0.186,0.119,-0.0693,–,–
ACGGAACC,-0.0323,–,–,–,0.461,–,–,0.235,0.435,-0.132,-0.079,0.38,–
CACGTTAG,-0.0485,0.017,0.0916,–,–,0.117,-0.0227,0.237,0.0853,-0.233,-0.0455,–,–
TTACGAAA,–,0.248,–,–,–,–,–,0.434,0.233,0.101,0.0327,–,0.396
CACGGAAC,-0.0637,0.48,–,0.425,0.414,–,0.127,0.0702,0.478,-0.129,0.0132,–,–
GTAACGTA,-0.013,–,–,0.467,0.315,–,0.13,0.489,0.402,0.182,-0.0479,–,–
ACGTAACT,0.174,–,–,–,–,–,–,0.325,0.474,0.0376,-0.0383,–,–
TTAGTCAA,0.00528,0.12,-0.0272,–,-0.11,-0.0141,-0.00931,0.0215,0.005,0.0916,0.481,–,-0.000125
TGGCGTAA,-0.0163,–,–,–,–,–,0.0386,0.482,0.246,0.108,-0.171,–,0.44
GTTGAGTA,0.152,–,–,–,-0.0297,–,-0.0774,0.419,0.108,0.171,-0.0405,0.139,–

Sequence,binding signal [1] [E-score],binding signal [2] [E-score],binding signal [3] [E-score],binding signal [4] [E-score],binding signal [5] [E-score],binding signal [6] [E-score],binding signal [7] [E-score],binding signal [8] [E-score],binding signal [9] [E-score],binding signal [10] [E-score],binding signal [11] [E-score],binding signal [12] [E-score],binding signal [13] [E-score]
AATGGTCA,–,-0.117,-0.0227,-0.0166,-0.0978,0.0454,-0.062,0.0101,-0.0587,0.0565,0.434,-0.0808,-0.0559
GACGTGTA,-0.0785,–,–,0.437,–,–,-0.151,0.229,0.338,0.0963,-0.0115,0.291,–
ATACGCCA,0.0499,0.0435,–,–,–,–,–,0.398,0.247,0.176,-0.0912,–,–
AGAGGTAA,–,–,0.0996,0.0189,–,0.049,–,-0.0037,-0.0261,-0.00824,-0.0457,0.106,–
TAGTCAGA,-0.0844,0.0162,0.0265,-0.0943,0.0312,-0.0214,0.0192,-0.0311,-0.0395,-0.214,–,–,-0.0794
ATTGCTTG,–,–,–,0.408,-0.0157,0.296,0.143,0.406,0.218,-0.0506,-0.00292,0.00945,–
GTCAACAC,-0.00594,–,–,–,–,–,0.00296,0.134,0.154,-0.00119,–,0.092,–
ATGGTCAA,–,-0.0837,–,0.00072,-0.00677,–,-0.0918,-0.152,-0.0619,0.0713,–,–,-0.034
AAAGTCAT,0.00983,-0.0526,0.0225,–,0.0502,–,0.00176,0.162,–,-0.0359,0.428,–,-0.0947
AGTCAACG,0.0192,–,0.00777,–,0.0565,–,-0.0613,0.0187,0.0338,0.0056,–,0.0469,0.0152
GTGGTCAA,-0.0341,-0.013,0.113,0.0165,-0.0413,-0.0905,-0.0212,-0.0551,0.0105,0.0727,–,–,–
ATAAGTCA,0.161,-0.187,0.0197,–,0.0206,0.02,-0.17,-0.00925,-0.0348,-0.116,–,-0.0328,-0.105
GGATTGAC,0.0579,–,–,0.0192,–,–,-0.0265,0.00967,0.034,0.0672,–,0.0383,–
TACGCCAA,–,–,–,–,0.0428,–,0.0846,0.454,0.244,0.187,-0.138,0.309,–
CAAGACCA,0.0845,-0.0124,–,-0.0144,0.0384,–,0.0107,0.0384,-0.0105,0.0104,–,0.0751,–
AAGGGAAA,–,0.045,0.047,–,-0.0119,-0.0345,–,0.117,0.0885,0.0974,-0.11,–,–
CTTGCTTA,–,–,0.00374,–,-0.125,0.17,0.194,0.437,0.0501,-0.0577,-0.15,–,–

# Reference: publication PMC4081100
